# Laboratory results published in the supplement of paper PMC11876631.
# Where a chain is given by its changes, count along the chain named. Names may count otherwise. ± gives the standard deviation of the averaged measurements. Laboratory Escherichia coli strains with one amino-acid change in an essential protein, pooled on minimal glucose agar with carbenicillin or gentamicin at twice the control MIC (plus kanamycin and chloramphenicol for the plasmids), 48 h. Fold change of barcode share against drug-free plates; higher = less susceptible. Active = above 20 in both replicates (the paper's putatively resistant). '<' = one read or none on drug, '>' = one read or none on a drug-free plate. Shares are relative, so most strains fall below 1 when a few take over. Listed are strains with at least 15 reads on both drug-free plates, and hits; most hits rest on fewer reference reads. Replicate rank correlation about 0.5. Edits are read from barcodes.
# B1: ftsY I364Q (protein)
# chain: MAKEKKRGFFSWLGFGQKEQTPEKETEVQNEQPVVEEIVQAQEPVKASEQAVEEQPQAHTEAEAETFAADVVEVTEQVAESEKAQPEAEVVAQPEPVVEETPEPVAIEREELPLPEDVNAEAVSPEEWQAEAETVEIVEAAEEEAAKEEITDEELETALAAEAAEEAVMVVPPAEEEQPVEEIAQEQEKPTKEGFFARLKRSLLKTKENLGSGFISLFRGKKIDDDLFEELEEQLLIADVGVETTRKIITNLTEGASRKQLRDAEALYGLLKEEMGEILAKVDEPLNVEGKAPFVILMVGVNGVGKTTTIGKLARQFEQQGKSVMLAAGDTFRAAAVEQLQVWGQRNNIPVIAQHTGADSASVQFDAIQAAKARNIDVLIADTAGRLQNKSHLMEELKKIVRVMKKLDVEAPHEVMLTIDASTGQNAVSQAKLFHEAVGLTGITLTKLDGTAKGGVIFSVADQFGIPIRYIGVGERIEDLRPFKADDFIEALFARED
# B2: ftsY I364P (protein)
# chain: B1 chain with Q364P
# B3: ftsZ V15W (protein)
# chain: MFEPMELTNDAVIKWIGVGGGGGNAVEHMVRERIEGVEFFAVNTDAQALRKTAVGQTIQIGSGITKGLGAGANPEVGRNAADEDRDALRAALEGADMVFIAAGMGGGTGTGAAPVVAEVAKDLGILTVAVVTKPFNFEGKKRMAFAEQGITELSKHVDSLITIPNDKLLKVLGRGISLLDAFGAANDVLKGAVQGIAELITRPGLMNVDFADVRTVMSEMGYAMMGSGVASGEDRAEEAAEMAISSPLLEDIDLSGARGVLVNITAGFDLRLDEFETVGNTIRAFASDNATVVIGTSLDPDMNDELRVTVVATGIGMDKRPEITLVTNKQVQQPVMDRYQQHGMAPLTQEQKPVAKVVNDNAPQTAKEPDYLDIPAFLRKQAD
# B4: ftsZ F99W (protein)
# chain: B3 chain with W15V, F99W
# B5: ftsZ V116A (protein)
# chain: B3 chain with W15V, V116A
# B6: ftsZ V116W (protein)
# chain: B3 chain with W15V, V116W
# B7: ftsZ V128A (protein)
# chain: B3 chain with W15V, V128A
# B8: argC V76A (protein)
# chain: MLNTLIVGASGYAGAELVTYVNRHPHMNITALTVSAQSNDAGKLISDLHPQLKGIVDLPLQPMSDISEFSPGVDVAFLATAHEVSHDLAPQFLEAGCVVFDLSGAFRVNDATFYEKYYGFTHQYPELLEQAAYGLAEWCGNKLKEANLIAVPGCYPTAAQLALKPLIDADLLDLNQWPVINATSGVSGAGRKAAISNSFCEVSLQPYGVFTHRHQPEIATHLGADVIFTPHLGNFPRGILETITCRLKSGVTQAQVAQVLQQAYAHKPLVRLYDKGVPALKNVVGLPFCDIGFAVQGEHLIIVATEDNLLKGAAAQAVQCANIRFGYAETQSLI
# B9: ftsZ V311A (protein)
# chain: B3 chain with W15V, V311A
# B10: argC V76W (protein)
# chain: B8 chain with A76W
# B11: argC V76Q (protein)
# chain: B8 chain with A76Q
# B12: gapA V17Q (protein)
# chain: MTIKVGINGFGRIGRIQFRAAQKRSDIEIVAINDLLDADYMAYMLKYDSTHGRFDGTVEVKDGHLIVNGKKIRVTAERDPANLKWDEVGVDVVAEATGLFLTDETARKHITAGAKKVVMTGPSKDNTPMFVKGANFDKYAGQDIVSNASCTTNCLAPLAKVINDNFGIIEGLMTTVHATTATQKTVDGPSHKDWRGGRGASQNIIPSSTGAAKAVGKVLPELNGKLTGMAFRVPTPNVSVVDLTVRLEKAATYEQIKAAVKAAAEGEMKGVLGYTEDDVVSTDFNGEVCTSVFDAKAGIALNDNFVKLVSWYDNETGYSNKVLDLIAHISK
# B13: gapA F18A (protein)
# chain: B12 chain with Q17V, F18A
# Molecular target: Escherichia coli (laboratory strain)
# Test: barcode share on antibiotic plates over drug-free plates; higher = less susceptible
# Description: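 A pool of E. coli strains, each edited to carry one amino-acid change in an essential protein, was grown for 48 h on minimal glucose agar with or without antibiotic; strain barcodes were sequenced; mean of two replicates.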
# [1] = antibiotic: carbenicillin, 2× MIC (3.1 µg/mL)
# [2] = antibiotic: gentamicin, 2× MIC (MIC 0.45 µg/mL)
Protein,fold change of barcode share [1],fold change of barcode share [2]
B1,0.245 ± 0.18,< 0.0157
B2,0.337 ± 0.24,< 0.0163
B3,0.166 ± 0.097,
B4,0.235 ± 0.1,< 0.00937
B5,0.378 ± 0.0078,0.00498 ± 0.0039
B6,0.187 ± 0.17,
B7,0.239 ± 0.015,0.0129 ± 0.0063
B8,0.906 ± 0.21,< 0.012
B9,0.0778 ± 0.047,< 0.013
B10,1.64 ± 0.49,
B11,0.571 ± 0.084,0.031 ± 0.028
B12,0.232 ± 0.088,< 0.0107
B13,0.433 ± 0.3,0.0193 ± 0.012
